From paper PMC4336329 (PLoS ONE, 2015)
About 14,000 (4.5%) of roughly 310,000 compounds showed an effect of 50% or more. Effects have a minus sign here. Some of the results follow.

What follows are molecules tested against human ether-à-go-go-related gene (hERG) potassium channel (human, UniProt Q12809) (assay: primary screen, population patch clamp on CHO cells stably expressing hERG).
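Note: peak tail current of the secondary pulse compared with the same well before compound.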

Sequence of human ether-à-go-go-related gene (hERG) potassium channel (Q12809 whole entry, looked up): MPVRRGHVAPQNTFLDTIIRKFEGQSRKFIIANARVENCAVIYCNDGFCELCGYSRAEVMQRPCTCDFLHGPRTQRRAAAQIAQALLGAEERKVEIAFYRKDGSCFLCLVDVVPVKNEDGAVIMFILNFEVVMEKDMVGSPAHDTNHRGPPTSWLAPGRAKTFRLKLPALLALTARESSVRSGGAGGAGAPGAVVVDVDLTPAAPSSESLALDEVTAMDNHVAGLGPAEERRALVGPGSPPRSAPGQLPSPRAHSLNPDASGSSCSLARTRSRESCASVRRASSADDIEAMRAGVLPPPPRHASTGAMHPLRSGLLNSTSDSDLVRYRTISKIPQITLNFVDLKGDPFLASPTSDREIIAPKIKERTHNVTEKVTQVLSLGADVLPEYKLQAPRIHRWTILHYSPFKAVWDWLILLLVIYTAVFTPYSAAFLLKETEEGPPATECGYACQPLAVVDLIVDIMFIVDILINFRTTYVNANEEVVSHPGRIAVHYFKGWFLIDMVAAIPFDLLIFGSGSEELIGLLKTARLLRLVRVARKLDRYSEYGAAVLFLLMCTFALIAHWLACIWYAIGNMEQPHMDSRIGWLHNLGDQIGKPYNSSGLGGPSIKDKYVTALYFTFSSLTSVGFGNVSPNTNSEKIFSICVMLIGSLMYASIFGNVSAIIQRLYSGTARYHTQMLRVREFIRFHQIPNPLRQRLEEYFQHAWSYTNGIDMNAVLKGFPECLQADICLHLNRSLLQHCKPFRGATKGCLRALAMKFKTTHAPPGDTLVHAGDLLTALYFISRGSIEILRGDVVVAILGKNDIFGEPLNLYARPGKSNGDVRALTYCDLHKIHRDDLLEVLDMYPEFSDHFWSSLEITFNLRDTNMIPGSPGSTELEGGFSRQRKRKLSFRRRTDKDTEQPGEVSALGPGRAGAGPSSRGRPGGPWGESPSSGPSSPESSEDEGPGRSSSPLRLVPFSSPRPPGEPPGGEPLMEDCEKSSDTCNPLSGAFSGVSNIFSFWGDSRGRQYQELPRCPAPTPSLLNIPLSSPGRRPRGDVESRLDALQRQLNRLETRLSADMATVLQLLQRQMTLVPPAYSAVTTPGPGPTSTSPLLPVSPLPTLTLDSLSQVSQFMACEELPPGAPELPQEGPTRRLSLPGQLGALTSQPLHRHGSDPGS

Row | Structure (SMILES) | hERG current change (%, negative = inhibition) at 10uM
1 | COc1nc(-c2cnccn2)sc1C | 12.6%
2 | S=c1[nH]nc(C2CCCCC2)n1/N=C/c1c(Cl)cccc1Cl | 12.5%
3 | COC(=O)c1cc(NC(=O)CN(c2ccccc2OC)S(=O)(=O)c2ccccc2)ccc1Cl | 1.44%
4 | Cc1ccc(S(=O)(=O)NCc2ccc(C(=O)N3CCc4ccccc4C3)cc2)cc1 | -6.9%
5 | CCN(CC)C(=O)C1c2ccccc2Oc2ccccc21 | 13.1%
6 | NS(=O)(=O)c1ccc(NC(=O)COC(=O)c2cnc(Cl)c(Cl)c2)cc1 | 15.2%
7 | CCOc1ccc(N2C(=O)C3C4C=CC(CC4)C3C2=O)c([N+](=O)[O-])c1 (centres unmarked) | -30.8%
8 | Cc1ccc(NC(=O)CCC(=O)OCC(=O)c2ccc(Oc3ccc([N+](=O)[O-])cc3)cc2)c(C)c1 | 5.55%
9 | COc1ccc(CN2CCN(Cc3ccc(Br)cc3)CC2)c(OC)c1OC.O=C(O)C(=O)O | -69.7%
10 | COc1ccc(-c2csc(NC(=O)Cc3ccccc3)n2)cc1OC | 14.4%
11 | O=C(NCc1ccccc1Cl)C1CCN(C(=O)c2ccco2)CC1 | 1.42%
12 | c1ccc2c(c1)[nH]c1c(N3CCOCC3)ncnc12 | 1.81%
13 | CCNCC(=O)Nc1c(C)cccc1C | 17.1%
14 | CCCCNC(=O)CCC(=O)Nc1ncc(-c2ccc(C)cc2)n1C | -2.96%
15 | O=C(CN(Cc1ccco1)C(=O)Cn1nnc(-c2cccs2)n1)NCc1ccccc1 | -51.7%
16 | CCc1ccc(NC(=O)CCCN2C(=O)C3CC=CCC3C2=O)cc1 (centres unmarked) | -17.2%
17 | Cc1cc(C)c(S(=O)(=O)Nc2ccc(O)cc2)c(C)c1 | -5.27%
18 | c1csc(-c2noc(COc3ccc4c(c3)CCCC4)n2)c1 | 10.7%
19 | O=C(NCC1CCCO1)c1cc(-c2ccco2)nc2ccccc12 (centres unmarked) | 11.3%
20 | O=C(CN1CCOCC1)Nc1cc(C(F)(F)F)ccc1Cl | -0.356%
21 | C[C@@H]1C=C[C@](Cc2ccccc2)(C(=O)NCC2CC2)N1C(=O)c1ccccc1 | -2.49%
22 | CCOc1cccc2cc(-c3csc(NC(=O)CCC(=O)NCCN4CCCCC4C)n3)c(=O)oc12 (centres unmarked) | -34.9%

Row | Structure (SMILES) | hERG current change (%, negative = inhibition) at 10uM
23 | CCN(CC(=O)NCc1ccc(F)cc1)C(=O)c1ccc(C(=O)c2ccccc2)cc1 | -42.3%
24 | CCOc1ccc(CCNC(=O)C2CCN(C(=O)N(C)C)CC2)cc1OCC | 14.2%
25 | O=C(COC(=O)c1cnccn1)Nc1ccccc1-c1ccccc1 | 17.7%
26 | COc1cc(SC)ccc1C(=O)NC1CCCc2ccccc21 (centres unmarked) | 9.46%
27 | C1=C(c2ccccc2)Nc2nnnn2C1 | 16.6%
28 | Cc1[nH]n(-c2ccccc2)c(=O)c1C(C[N+](=O)[O-])c1ccc(F)cc1 (centres unmarked) | 10.4%
29 | COC(=O)C1=C(c2cccc(OCc3ccccc3)c2)C[C@@H]2CC[C@H]1N2C(=O)NCCc1ccc(F)cc1 | -13.4%
30 | O=C(Nc1ccccn1)C1CCN(S(=O)(=O)c2ccc3c(c2)OCCCO3)CC1 | -0.164%
31 | Cc1cccc(NC(=O)NC(C)C(c2ccccc2)N2CCN(C)CC2)c1 (centres unmarked) | -36.5%
32 | Cc1ccc(C(=O)N/C(=C/c2cccnc2)C(=O)NCc2ccco2)cc1 | -41.7%
33 | CC1COC(=O)C(NNc2ccc(Cl)c(Cl)c2)=N1 (centres unmarked) | 27.3%
34 | CC(=O)Nc1ccc(Sc2ncnc3scc(-c4ccccc4)c23)cc1 | 2.58%
35 | O=S1(=O)CCN(Cc2cccc(Cl)c2)CC1 | 1.06%
36 | COc1ccccc1N1CCN(Cc2nc3ccccc3c(=O)n2CC(C)=O)CC1 | -9.71%
37 | COc1cccc(NC(=O)Nc2nnc(N3CCCCC3C)s2)c1 (centres unmarked) | 0.237%
38 | Cc1ccc2c(c1)cc(CN(Cc1ccc3c(c1)OCO3)C(=O)c1cnccn1)c1nnnn12 | -45.7%
39 | Cn1c(=O)[nH]c(=O)c2c1nc(CN1CCOCC1)n2CCCO | 5.76%
40 | Cc1ccn2c(Nc3ccccc3C)c(-c3cccnc3)nc2c1 | -10.3%
41 | CCOC(=O)N1CCN(c2c(NC3CCN(Cc4ccccc4)CC3)c(=O)c2=O)CC1 | 7.18%
42 | CC(C)OC(=O)C1C2c3ccccc3C(c3ccccc32)C1C(=O)O (centres unmarked) | 15.9%
43 | CC(C)CN(C(=O)COc1ccc2ccc(=O)oc2c1)C1CCS(=O)(=O)C1 (centres unmarked) | 12%
44 | Cc1ccnc(NS(=O)(=O)c2ccc(NC(=O)C34CC5CC(CC(C5)C3)C4)cc2)n1 | 4.75%
